Data on 30 compounds can be found in PubChem BioAssay AID1745853 (National Center for Advancing Translational Sciences (NCATS), 2022).

The list shows a part of the results. These are further read-outs of the screen, such as a control signal, another cell line or another target. No call is given for them.

What all share (test): Primary Screen for Target Class Profiling of Small Molecule Inhibitors of Methyltransferases
Test [1] concerns the target Glycine N-methyltransferase (Homo sapiens) (UniProt Q14749). The following applies: purified enzyme, MTase-Glo SAH luminescence; measured here: GNMT inhibition; at 40 µM; stronger effect = lower value. The method, boiled down:
(§1)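 Each enzyme was assayed with SAM and its substrate. SAH formation detected by MTase-Glo luminescence; single-point 40 uM screen[…].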

The target of test [2] is Guanidinoacetate N-methyltransferase (Homo sapiens) (UniProt Q14353). The following applies: purified enzyme, MTase-Glo SAH luminescence; measured here: GAMT inhibition; at 40 µM; stronger effect = lower value. The method, boiled down: as §1
The target in test [3] is Histamine N-methyltransferase (Homo sapiens) (UniProt P50135). Particulars: purified enzyme, MTase-Glo SAH luminescence; measured here: HNMT inhibition; at 40 µM; stronger effect = lower value. In short, it runs like this:
as §1

In test [4] the target is Nicotinamide N-methyltransferase (Homo sapiens) (UniProt P40261). Particulars: purified enzyme, MTase-Glo SAH luminescence; measured here: NNMT inhibition; at 40 µM; stronger effect = lower value. In short, it runs like this:
as §1

In test [5] the target is Phenylethanolamine N-methyltransferase (Homo sapiens) (UniProt P11086). Particulars: purified enzyme, MTase-Glo SAH luminescence; measured here: PNMT inhibition; at 40 µM; stronger effect = lower value. In short, it runs like this:
as §1
% is scaled to controls: 0 for no effect and ±100 for the full control effect.

As to `CCCNC(=O)N1Cc2ccccc2-n2cccc2C1c1ccc(N(C)C)cc1` (stereo not drawn), the activity change, negative = inhibition was 8.88% in test [1]; 0% in test [2]; 1.32% in test [3]; 0.177% in test [4]; 6.86% in test [5].
On the same counts, the results for `CCOC(=O)CNC(=O)N1Cc2ccccc2-n2cccc2C1c1cccs1` (stereo not drawn) are 4.47%, 1.92%, -10.1%, -3.72% and 0.662%.
The corresponding values for `CC1c2cccn2-c2ccccc2CN1C(=O)NCc1ccco1` (stereo not drawn) are 3.47%, 2.11%, -3.29%, -4.16% and 3.75%.
With `CC(=O)[C@H]1CCC2C3CC[C@H]4C[C@H](O)CC[C@]4(C)C3CC[C@@]21C` (stereo partly drawn), the activity change, negative = inhibition in test [1] is 2.69%; in test [2] it was 9.34%; in test [3], 5%; in test [4], -5.54%; in test [5] it was 6.25%.
On to `O=C(O)c1ccnc2cc(C(OCCN3CCCCC3)c3ccccc3Cl)[nH]c12` (stereo not drawn), for which the activity change, negative = inhibition was -6.5% in test [1]; -7.83% in test [2]; 6.09% in test [3]; -13.9% in test [4]; -1.36% in test [5].
Consider `C=CC(C)(C)C12C=C(O)C(=O)N3/C(=C\c4cnc[nH]4)C(=O)NC31N(OC)c1ccccc12` (stereo not drawn), for which the activity change, negative = inhibition was -0.887% in test [1]; -15.2% in test [2]; -40.8% in test [3]; -25.9% in test [4]; -6.86% in test [5].
On the same counts, the results for `CCC1c2cccn2-c2ccccc2CN1C(=O)Nc1cccc(C(F)(F)F)c1` (stereo not drawn) are -0.51%, 0.944%, -2.14%, -6.54% and -2.83%.
On the same counts, the results for `Cc1cccc(NC(=O)N2Cc3ccccc3-n3cccc3C2c2ccc(Cl)cc2)c1C` (stereo not drawn) are 0.3%, 0%, 5.96%, 8.73% and 6.19%.
On the same counts, the results for `COc1cccc(CNC(=O)N2Cc3ccccc3-n3cccc3C2c2cccs2)c1` (stereo not drawn) are 3.7%, 1.72%, -9.45%, -10.6% and -2.14%.
Regarding `CC(C)c1cccc(C(C)C)c1O`, the activity change, negative = inhibition in test [1] is 3.74%; in test [2] it was 15.1%; in test [3], 6.99%; in test [4] it was -0.052%; in test [5], 12.9%.
Consider `CN(C)c1nc2c(c(N3C[C@H]4CNC[C@@]4(C(=O)O)C3)n1)CCCC2`, for which the activity change, negative = inhibition in test [1] is -1.09%; in test [2], -1.71%; in test [3], -0.273%; in test [4] it was -2.64%; in test [5] it was -18.3%.
The corresponding values for `CCOc1ccc(C2c3cccn3-c3ccccc3CN2C(=O)Nc2ccc(C)cc2C)cc1` (stereo not drawn) are -2.76%, 0.153%, 4.17%, 4.8% and 6.07%.
On the same counts, the results for `CCc1ccccc1NC(=O)N1Cc2ccccc2-n2cccc2C1c1ccc(OC)c(OC)c1` (stereo not drawn) are 13.8%, 2.46%, 8.11%, 6.59% and 9.97%.
`C[C@]12CC[C@H](O[C@@H]3O[C@H](CO)[C@@H](O)[C@H](O)[C@H]3O)CC1CC[C@@H]1C2CC[C@]2(C)[C@@H](C3=CC(=O)OC3)CC[C@]12O` (stereo partly drawn): the activity change, negative = inhibition in test [1] is 2.76%; in test [2], 0.393%; in test [3], 9%; in test [4] it was -11.8%; in test [5] it was 5.06%.
On the same counts, the results for `COc1cc(O)c2c(c1)/C=C/C[C@@H](O)[C@@H](O)C(=O)CCC[C@H](C)OC2=O` are -22.5%, -9.05%, -37.2%, -19.4% and -15.9%.
As to `CC(C)CCNC(=O)N1Cc2ccccc2-n2cccc2C1c1ccc(F)cc1` (stereo not drawn), the activity change, negative = inhibition in test [1] is -3.51%; in test [2], 1.11%; in test [3], -5.9%; in test [4], -9.94%; in test [5], -0.979%.
In the case of `COCC1CN(C)CC12CCN(Cc1cccnc1)CC2` (stereo not drawn), the activity change, negative = inhibition in test [1] is -0.285%; in test [2], 2.48%; in test [3] it was -1.01%; in test [4], -3.31%; in test [5], -14.1%.
The corresponding values for `CC(C)CCNC(=O)N1Cc2ccccc2-n2cccc2C1c1ccccc1` (stereo not drawn) are 6.75%, 0.158%, 3.32%, 2.32% and 6.58%.
On the same counts, the results for `C=C1[C@@H](O)[C@]2(O)OC[C@]34C2[C@]2(C)C(C[C@H]3OC(=O)[C@H](O)[C@@]14O)C(C)=CC(=O)[C@H]2O` (stereo partly drawn) are -0.941%, -9.58%, -3.9%, -19.7% and -1.26%.
The corresponding values for `C/C=C(/C)C(=O)O[C@H]1C(C)=C2[C@H]([C@@H]1OC(=O)CCCCCCC)[C@@](C)(OC(C)=O)C[C@H](OC(=O)CCC)[C@@]1(O)[C@H]2OC(=O)[C@@]1(C)O` are 0.853%, 1.19%, 3.11%, -17.6% and -2.6%.
Take `CCOCCCNC(=O)N1Cc2ccccc2-n2cccc2C1c1cc(F)cc(F)c1` (stereo not drawn): the activity change, negative = inhibition in test [1] was 14.1%; in test [2], 2.63%; in test [3], 9.8%; in test [4], 4.15%; in test [5], 8.84%.
The corresponding values for `Cc1ccc(NC(=O)N2Cc3ccccc3-n3cccc3C2c2ccccc2C)cc1Cl` (stereo not drawn) are 5.7%, 0.063%, 1.86%, 3.81% and -0.001%.
On the same counts, the results for `CCN1CCCN(C(=O)c2cccnc2)CC12CCOCC2` are 0.371%, -2.8%, 1.83%, -6.37% and 12.1%.
On to `CCC1c2cccn2-c2ccccc2CN1C(=O)Nc1cc(C)ccc1C` (stereo not drawn), for which the activity change, negative = inhibition is 4.16% in test [1]; 2.19% in test [2]; 7.23% in test [3]; 6.4% in test [4]; -0.109% in test [5].
The corresponding values for `CC(=O)OC12C(O)C(C)C3(O)C4C=C(C)C(=O)C4CC(CO)=CC3C1C2(C)C` (stereo not drawn) are 0.691%, 1.24%, 10.1%, -11.7% and -5.44%.
With `Cc1ccc(NC(=O)N2Cc3ccccc3-n3cccc3C2c2ccc(N(C)C)cc2)cc1F` (stereo not drawn), the activity change, negative = inhibition in test [1] is 9.79%; in test [2], 0%; in test [3], -5.23%; in test [4], 5.66%; in test [5], 7.5%.
On the same counts, the results for `c1ccc([C@@H]2C[C@H]2NC2CCNCC2)cc1` are -7.86%, -15.8%, -6.98%, -17.6% and -20.5%.
Take `CCCCCC[C@H]1C(=O)O[C@H](C)[C@H](NC(=O)c2cccc(NC=O)c2O)C(=O)O[C@@H](C)[C@@H]1OC(=O)CC(C)C`: the activity change, negative = inhibition in test [2] is 0.319%; in test [4] it was -37.7%; in test [5], -18.7%.
Consider `CCCC[N+]1(C)C2CC(OC(=O)[C@H](CO)c3ccccc3)CC1C1OC12` (stereo partly drawn), for which the activity change, negative = inhibition in test [1] is -4.25%; in test [2], 1.09%; in test [3] it was -0.777%; in test [4], -5.74%; in test [5], 2.81%.
Regarding `CC(C)C1c2cccn2-c2ccccc2CN1C(=O)Nc1ccccc1` (stereo not drawn), the activity change, negative = inhibition in test [1] was -3.35%; in test [2], 0%; in test [3], 10.2%; in test [4] it was 10%; in test [5], 6.31%.
